# Experimental data as given in patent US20250236878A1 (priority 2019, published 2025).
# Key:
# [1] = test system: corn plants (hybrids DKC 60-88 RIB, DKC 58-08 RIB and DKC 64-35 RIB)
# [2] = test system: soybean plants (varieties AG35X7, AG41X8, AG27X7 and AG30X6)
# [3] = test system: soybean varieties AG2733, AG3931, P21a28x, P40a47x
Substance,"Average Bu/Ac Increase compared to Control ([1]; foliar spray V4-V7, 12 locations, vs surfactant control)","Average Total Yield Bu/Ac (12 locations) ([1]; foliar spray V4-V7, Bt.4Q7Flg22 4.0 Fl. oz/Ac, ACC Deaminase 8.0 Fl. oz/Ac, surfactant control = 225.51)","Average Bu/Ac Increase compared to Control ([2]; foliar spray V3-V6, 14 locations, vs surfactant control)","Average Total Yield Bu/Ac (14 locations) ([2]; foliar spray V3-V6, Bt.4Q7Flg22 4.0 Fl. oz/Ac, Osmoprotectant 3.2 Fl. oz/Ac, surfactant control = 64.69)","Average Bu/Ac Increase compared to Control ([3]; foliar spray at R2, 11 sites, vs untreated control)","Average Total Yield Bu/Ac (11 sites) ([3]; foliar spray at R2, Bt.4Q7Flg22 4.0 Fl. oz/Ac, Osmoprotectant 3.2 Fl. oz/Ac, untreated control = 65.16)"
Bt.4Q7Flg22 (SEQ ID NO: 226) (Composition 1) (DRLSSGKRINSASDDAAGLAIA; listed as Bacillus thuringiensis),+4.37 Bu/Ac,229.88 Bu/Ac,+0.29 Bu/Ac,64.97 Bu/Ac,,
Bt.4Q7Flg22 (SEQ ID NO: 226) (Row Crop Composition 1) (DRLSSGKRINSASDDAAGLAIA; listed as Bacillus thuringiensis),,,,,+1.44 Bu/Ac,66.60 Bu/Ac
